Molecules are shown by their SMILES. Hit rate of the full screen: of about 52,000 compounds, about 4,300 (8.3%) were called active. Cut-off read from the data, not from the text of the source: active = survival mostly below about 52% (no sharp cut-off); inactive = mostly above about 56%. The list shows a part of the results.

For the assay, the system named is DeltatarO mutant. In words: S. aureus survival, RN4220 and DeltatarO strains – OD600, teichoic acid synthesis inhibitors, primary screen (AID 463173). Particulars: S. aureus RN4220 wild type/DeltatarO growth, OD600, 18 h, stronger effect = lower value, screened at 18.75 µg/mL (by protocol).
`Cc1ccc(-n2c(CCC(=O)O)ccc2-c2cccs2)cc1Cl`: the survival is inactive: 86%. For `CCn1c(SC)nnc1C1CCCN(CC(=O)NCc2ccc3c(c2)OCO3)C1` (configuration not stated) the value was inactive: 78%; for `Cc1cc(C)cc(NC(=O)Cn2c(=O)n(-c3ccc(C)c(C)c3)c(=O)c3oc4ccccc4c32)c1`, inactive: 66%. As to `CCN1C=CC2=C(C#N)C(N)C(C#N)(C#N)C(c3ccccc3C(F)(F)F)C2C1` (configuration not stated), the survival is inactive: 89%.

As to `Cc1ccc2nc(CN3CCN(S(=O)(=O)c4ccc(C(C)C)cc4)CC3)oc2c1`, the survival is inactive: 91%. The same measure for `COC(=O)c1ccc(NC(=O)CCn2cnnn2)c(C)c1`: inactive: 78%. In the case of `CCN1CCSc2ccc(C(=O)NCc3cccc(Br)c3)cc21`, the survival was active: 46%.

Consider `CCOc1ccc(NC(=O)CSc2c3c(nc4ccccc24)CCCC3)cc1`, for which the survival is inactive: 88%.

Consider `CCCCOc1ccccc1C(=O)N(Cc1sccc1C)C1CCS(=O)(=O)C1` (configuration not stated), for which the survival was inactive: 94%. In the case of `COc1ccc2cc(CNc3ccc(C)cc3)c(=O)n(CC(=O)Nc3ccc(C)cc3Cl)c2c1`, the survival is inactive: 102%. For `CC(C)(C)c1ccc(C(=O)N2CCCC(c3nc4c(nnn4Cc4cccc(F)c4)c(=O)[nH]3)C2)cc1` (configuration not stated) the value was active: 7%; for `Cc1ccc(-c2cn3nc(N4CCCC(C(=O)NCc5ccc(F)cc5)C4)sc3n2)cc1` (configuration not stated), inactive: 86%; for `CC1=C(C(=O)N2CCCCC2)C(c2ccc(Cl)cc2)n2c(nc3ccccc32)N1` (configuration not stated), inactive: 70%. For `Cc1cccc(C(=O)Nc2ccc(N3CC=C(c4ccccc4C)CC3)c(C(=O)O)c2)c1` the value was inactive: 102%; for `Cc1ccc(CN2C(=O)c3ccccc3Sc3ccc(C(=O)N4CCOCC4)cc32)cc1`, inactive: 96%; for `Cc1ccc(NC(=O)c2oc3ccc(S(=O)(=O)N(C)C4CCCCC4)cc3c2C)c(C)c1`, inactive: 73%. Regarding `COc1ccc(-c2nc(C)c(CCNC(=O)c3ccc(C(F)(F)F)cc3)s2)cc1OC`, the survival is active: -2%. The same measure for `CCOc1ccc(NC(=O)CSc2oc(-c3ccco3)nc2S(=O)(=O)c2ccccc2)cc1`: inactive: 101%. For `COc1cc(NC(=O)CN2CCCN(Cc3cccc(F)c3)S2(=O)=O)cc(OC)c1` the value was inactive: 86%; for `CCOC(=O)c1c(C)oc2nc(C)nc(NCCc3ccc(C)cc3)c12`, inactive: 73%. The same measure for `CC(C)N(C(=O)CSc1nnc(-c2cccnc2)n1Cc1ccccc1)C(C)C`: inactive: 56%; for `CCCc1cc(N2CCN(c3ccccc3F)CC2)n2cnnc2n1`: inactive: 75%. As to `CCN(CC)S(=O)(=O)c1ccc2c(c1)N(CC(=O)Nc1c(C)cccc1C)C(=O)C1CCCN21` (configuration not stated), the survival is inactive: 89%. For `Cc1c(C)n(Cc2ccccc2)c2ccc(C(=O)N3CCN(c4ccccc4)CC3)cc12` the value was inactive: 99%; for `COc1ccc(C(=O)NC(c2ccccc2Cl)c2cc(Cl)c3cccnc3c2O)cc1` (configuration not stated), inactive: 92%; for `Cc1ccc(OCC(=O)NCC(=O)OCc2cc(=O)n3nc(C(C)C)sc3n2)cc1`, inactive: 97%.

With `CC(C)Oc1ccc(C(=O)N(Cc2ccc(N(C)C)cc2)Cc2ccco2)cc1`, the survival was inactive: 59%. For `COC(=O)CN(C#N)c1nc(C)cc(C)n1` the value was inactive: 94%. For `O=S(=O)(c1ccccc1)c1nc(-c2ccc(F)cc2)oc1NCc1ccccc1` the value was inactive: 67%; for `O=C(COc1ccccc1F)Nc1ccc2nc(SCC(=O)N3CCOCC3)sc2c1`, inactive: 79%; for `COc1ccc(CNC(=O)CCCc2nnc3n(C(C)C)c(=O)c4sccc4n23)cc1`, inactive: 82%. For the molecule `O=C(CN1CCOCC1)Nc1nc(-c2ccc3c(c2)CCN3S(=O)(=O)c2ccccc2)cs1`, the survival was inactive: 70%.

On to `Cc1ccc(S(=O)(=O)Nc2cc(Cl)c3oc4c(c3c2)CCCC4)cc1`, for which the survival was inactive: 117%. For `O=C(NCCc1ccccc1)c1ccc2c(c1)nc1n2CCOC1` the value was inactive: 109%; for `CCOc1ccc(CNC(=O)CSc2c3c(nc4cc(Cl)ccc24)CCCC3)cc1`, inactive: 51%.

On to `COC(=O)C1C(c2ccccc2)C(C(=O)N2CCOCC2)C1c1ccccc1` (configuration not stated), for which the survival is inactive: 107%.

Consider `COc1ccccc1CNC(=O)CCS(=O)(=O)c1ccc2c(c1)oc(=O)n2C`, for which the survival is inactive: 76%. The same measure for `CCOC(=O)c1cccc(NC(=O)CSc2ncc3c(n2)-c2ccc(Cl)cc2N(Cc2ccccc2)S3(=O)=O)c1`: inactive: 95%; for `Cc1c(-c2nsc(NC(=O)c3cccs3)n2)nnn1-c1ccc(F)cc1`: inactive: 82%.

As for `Cc1cccc(OC(=O)c2snnc2C)c1`, the survival was inactive: 88%. For `Cc1cccc(C)c1Nc1c(-c2ccccn2)nc2ccc(Cl)cn12` the value was inactive: 135%.

As to `COc1ccc(-c2nc(CSCC(=O)N3CCN(c4ccccc4F)CC3)c(C)o2)cc1`, the survival was active: 35%. The same measure for `Cn1cc(S(=O)(=O)N2CCCCCC2)cc1C(=O)NCc1ccc(F)cc1`: inactive: 76%; for `O=C(NCc1ccccc1)NC1COc2ccccc2C1` (configuration not stated): inactive: 115%; for `COc1ccc(-c2nsc3c(N4CCCCC4C)ncnc23)cc1` (configuration not stated): inactive: 87%. For `O=C(Nc1ccc(N2CCOCC2)cc1)C12CC3CC(CC(C3)C1)C2` the value was inactive: 92%; for `CCN(C(=O)Cn1c(=O)oc2cc(S(=O)(=O)N3CCCCCC3)ccc21)c1cccc(C)c1`, inactive: 76%; for `O=c1[nH]n(CC2COC(c3ccccc3)O2)c(=O)c2ccccc12` (configuration not stated), inactive: 77%.

As for `O=C(CCS(=O)(=O)c1ccc(Br)s1)Nc1cc(C(F)(F)F)cc(C(F)(F)F)c1`, the survival is active: 42%. For `CCOc1ccccc1CNC(=O)c1ccc2nc(N3CCC(C)CC3)sc2c1` the value was inactive: 95%; for `Cc1ccccc1Nc1c(-c2ccc(N3CCOCC3)cc2)nc2cccc(C)n12`, inactive: 75%; for `CCC(C)Nc1nc2c(c(=O)[nH]c(=O)n2C)n1Cc1ccc(F)cc1` (configuration not stated), inactive: 73%. For `Cc1ccc(-n2ncc3c(NCCc4ccc(S(N)(=O)=O)cc4)ncnc32)cc1` the value was inactive: 84%. For `CCCCOC(=O)CSc1ncnc2sc3c(c12)CCC(C)C3` (configuration not stated), the survival was active: 17%. For `CC1=C(c2ccc(C)cc2)S(=O)(=O)NC1=NCc1ccccc1Cl` the value was inactive: 77%; for `COC(=O)c1cc2sccc2n1Cc1nc(-c2cccc(Cl)c2)oc1C`, inactive: 83%.

Regarding `C=Cc1ccc(Cn2c(C(=O)O)c(CNCCc3ccco3)c3ccc(C)cc32)cc1`, the survival is inactive: 119%.

The values above are taken from PubChem BioAssay AID463173 (ICCB-Longwood Screening Facility, Harvard Medical School, 2010).
